Data: PMC4336329 (PLoS ONE, 2015)
Screen size: about 310,000 compounds; about 14,000 (4.5%) showed an effect of 50% or more. Effects have a minus sign here. This is one part of the list.

Target: human ether-à-go-go-related gene (hERG) potassium channel (human, UniProt Q12809)
Assay: primary screen, population patch clamp on CHO cells stably expressing hERG
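Note: peak tail current of the secondary pulse compared with the same well before compound.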

Chain of human ether-à-go-go-related gene (hERG) potassium channel (Q12809 whole entry, looked up): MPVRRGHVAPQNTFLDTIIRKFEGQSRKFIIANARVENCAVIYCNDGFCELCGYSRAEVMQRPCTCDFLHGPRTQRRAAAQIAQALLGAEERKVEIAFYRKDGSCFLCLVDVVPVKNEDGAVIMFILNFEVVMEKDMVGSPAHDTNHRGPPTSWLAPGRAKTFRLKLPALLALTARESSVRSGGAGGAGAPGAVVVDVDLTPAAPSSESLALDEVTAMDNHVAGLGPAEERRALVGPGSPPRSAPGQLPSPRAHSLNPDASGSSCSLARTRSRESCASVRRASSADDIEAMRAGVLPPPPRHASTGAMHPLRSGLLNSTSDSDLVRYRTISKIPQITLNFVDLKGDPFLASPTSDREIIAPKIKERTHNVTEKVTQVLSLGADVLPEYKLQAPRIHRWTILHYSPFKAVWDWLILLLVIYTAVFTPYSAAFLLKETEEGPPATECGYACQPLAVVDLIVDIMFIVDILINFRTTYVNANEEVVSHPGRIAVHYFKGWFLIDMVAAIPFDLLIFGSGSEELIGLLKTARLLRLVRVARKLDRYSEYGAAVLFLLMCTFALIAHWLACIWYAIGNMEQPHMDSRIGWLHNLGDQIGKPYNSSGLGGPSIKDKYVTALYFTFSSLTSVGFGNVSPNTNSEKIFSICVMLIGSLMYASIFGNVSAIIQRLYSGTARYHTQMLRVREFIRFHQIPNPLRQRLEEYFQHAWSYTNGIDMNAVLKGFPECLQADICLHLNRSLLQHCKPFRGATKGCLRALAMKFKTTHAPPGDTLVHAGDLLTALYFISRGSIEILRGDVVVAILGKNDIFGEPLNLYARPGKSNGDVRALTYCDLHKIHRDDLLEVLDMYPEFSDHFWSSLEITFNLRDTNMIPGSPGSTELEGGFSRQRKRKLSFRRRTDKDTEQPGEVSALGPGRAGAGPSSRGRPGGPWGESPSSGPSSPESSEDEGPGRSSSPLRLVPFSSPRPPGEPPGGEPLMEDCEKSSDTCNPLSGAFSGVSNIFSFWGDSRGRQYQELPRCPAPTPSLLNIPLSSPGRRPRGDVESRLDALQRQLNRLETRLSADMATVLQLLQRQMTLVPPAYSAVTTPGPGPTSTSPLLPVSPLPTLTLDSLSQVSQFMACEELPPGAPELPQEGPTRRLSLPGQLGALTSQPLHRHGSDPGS

| Compound | hERG current change (%, negative = inhibition) at 10uM [%] |
| --- | --- |
| CCCCc1nnc(NC(=O)CSCc2cc(=O)n3c(C)csc3n2)s1 | 4.61 |
| CCC(C(=O)NC1CCCC1)N(Cc1ccco1)C(=O)CNS(=O)(=O)c1ccccc1 (centres unmarked) | 12.4 |
| CC(C)(C)c1ccc(NC(=O)COC(=O)CCN2C(=O)c3cccc([N+](=O)[O-])c3C2=O)cc1 | -4.35 |
| CCO[C@@H]1OC(C(=O)N2CCCCCCC2)=C[C@H](c2csc3ccccc23)[C@H]1CCCO | -23.6 |
| CCC(=O)Nc1cccc(C(=O)/C=C/c2cc(Br)ccc2OC)c1 | -17.2 |
| COc1ccc2[nH]cc(C=O)c2c1 | 17.7 |
| COc1cccc(C(=O)Nc2cccc(SC)c2)c1 | -21.5 |
| S=C(Nc1ccc2nsnc2c1)NC1CCCCC1 | -6.44 |
| CN(C)C(=O)Oc1cccc(NC(=O)N2CCOCC2)c1 | 5.15 |
| O=C(COC(=O)C1CCN(S(=O)(=O)c2ccc3c(c2)OCCO3)CC1)Nc1ccc(C(F)(F)F)cc1 | -0.0388 |
| CCN(CC)c1ccc(CN2CCC(C(=O)NCc3ccc(C)cc3)CC2)cc1.O=C(O)C(=O)O | -65.3 |
| CCCCCOc1ccc(Cl)cc1CN1CCOCC1.Cl | -9.35 |
| COC(=O)CCCC1=CC2=C(c3ccccc3)C(=O)C(C)(OC(=O)C3CCCC3)C(=O)C2=CN1C1CCCC1 (centres unmarked) | -32.1 |
| Cc1ccccc1CSc1ncnc2ccccc12 | -4.5 |
| CCc1nn(CC(=O)NC(C)CCc2ccccc2)c(=O)c2cc3cc(F)ccc3n12 (centres unmarked) | 13 |
| Cc1nc(CC(=O)N/N=C/c2ccc(OCC(=O)O)cc2)cs1 | 9.98 |
| CNC(=S)N(C)[C@H]1c2c(ccc3ccccc23)OC[C@H]1CO | 9.85 |
| COc1cccc(C(=O)NC(C)c2ccc(Br)cc2)c1 (centres unmarked) | -11.9 |
| Cc1cc(Nc2ccc(F)cc2C)n2ncnc2n1 | -4.78 |

| Compound | hERG current change (%, negative = inhibition) at 10uM [%] |
| --- | --- |
| COc1ccc(S(=O)(=O)N2CCN(c3ccc4nnc(-c5ccc(F)cc5)n4n3)CC2)cc1 | -19.4 |
| O=C(CCCNS(=O)(=O)c1cccs1)N1CCN(c2ccc(F)cc2)CC1 | -43.2 |
| CCOC(=O)CCc1c(C)c(C#N)c2nc3ccccc3n2c1-n1ccnc1 | -31.1 |
| CC1CCC(NC(=O)c2ccc(COc3ccccc3)o2)CC1 (centres unmarked) | 7.02 |
| Cc1nc2cc(C(=O)OCC(=O)Nc3cccc(Cl)c3)ccc2n1-c1ccccc1 | -13.6 |
| COc1cc(S(=O)(=O)NCc2ccccc2Cl)ccc1-n1cnnn1 | -18.2 |
| O=C(CSc1nnc(-c2cccnc2)n1-c1ccccc1)Nc1ccc2c(c1)OCO2 | -6.74 |
| O=C(CCNS(=O)(=O)c1cccs1)NC1CCN(Cc2ccccc2)CC1 | 9.19 |
| Cc1ccc(S(=O)(=O)N2CCC(=O)N(C(COCc3ccccc3)C(C)C)CC2)cc1 (centres unmarked) | -23.2 |
| O=c1[nH]c(/C=C\c2cccc(Cl)c2)nc(O)c1[N+](=O)[O-] | 16.4 |
| CC(=O)C(Cc1ccccc1)NC(=O)CN1CCN(Cc2ccccc2)CC1 (centres unmarked) | -5.57 |
| COc1ccc(C(=S)N2CCN(C)CC2)cc1 | -22.8 |
| COc1ccc(NC(=O)CSc2ncnc3c2nnn3-c2ccc(F)cc2)c(OC)c1 | 4.57 |
| CCn1ccc2cc(OC)ccc2c1=S | 10.3 |
| CC1CC(C)CN(CCCNC(=O)c2ccc(CS(=O)(=O)Cc3ccccc3F)o2)C1 (centres unmarked) | -42.7 |
| Cc1ccc(NC(=O)C(OC(=O)c2ccc(C=O)cc2)c2ccccc2)cc1Cl (centres unmarked) | 6.16 |
| Cc1cccc(N)c1-c1c(C)cccc1N | 11.3 |
| O=C(N(Cc1ccccc1)c1ccccn1)C12CC3CC(CC(C3)C1)C2 | -17.7 |
| CC(NC(=O)c1cc2cc([N+](=O)[O-])ccc2oc1=O)C1CCCO1 (centres unmarked) | 22.6 |

| Compound | hERG current change (%, negative = inhibition) at 10uM [%] |
| --- | --- |
| Nc1nonc1-n1nnc(C(=O)N/N=C\c2ccncc2)c1CN1CCCCC1 | -15.8 |
| Cc1nc2ncnn2c(C)c1CCC(=O)NCCC1=CCCCC1 | -23.7 |
| Cc1ccccc1NC(=O)Cc1nc(COC(=O)c2cccc(C)c2O)cs1 | -8.57 |
| CNC(=O)[C@@H]1CCC(=O)N1 | 10.6 |
| CCc1cc2c(=O)c(-c3nc4ccccc4n3C)c(C)oc2c(CN2CCN(C)CC2)c1O | 14.3 |
| CCOC(=O)c1[nH]c2ccc(Br)cc2c1NC(=O)CNC | -7.67 |
| CC(C)C(=O)Nc1cc2c(cc1C(=O)c1ccccc1)OCCO2 | 0.342 |
| COc1ccc(C)cc1NC(=O)c1sc2nc(C)nc(N3CCOCC3)c2c1C | -17.9 |
| Cc1noc2ncnc(Oc3ccc4ccccc4c3)c12 | 2.47 |
| CCCCCN(C(=O)CCC(=O)OC(C)C(=O)NC1CCCCC1)c1c(N)n(CCCC)c(=O)[nH]c1=O (centres unmarked) | 16.1 |
| O=C1COc2ccc(-c3csc(NCC4CCCO4)n3)cc2N1 (centres unmarked) | 3.87 |
| O=C(O)[C@H](CSCc1ccccc1)NS(=O)(=O)c1ccc(F)cc1 | -0.928 |
| COCc1cc(C)n(CC(=O)NCC2CCCO2)c(=O)c1C#N (centres unmarked) | 12 |
| Cl.O=C(CN1CCCCCC1)Nc1cccc2c1OCO2 | -8.62 |
| Cc1nc(-c2ccc(S(=O)(=O)Nc3ccc(S(N)(=O)=O)cc3)cc2)co1 | 24.5 |
| COc1cc([N+](=O)[O-])c(N2CCOCC2)c([N+](=O)[O-])c1OC | -4.15 |
| CC1(c2ccc3ccccc3c2)NC(=O)N(CC(=O)Nc2ncccc2O)C1=O (centres unmarked) | 3.73 |
| Cc1cccc(CC(=O)Nc2cc(=O)n(C)c(=O)n2C)c1 | 3.82 |
